This data set concerns ATP. As to the kind of experiment: switch fluorescence ratio, 500 uM ATP over buffer (Cy3 cluster intensity, sum of 5 cycles each) (fold (ratio)); higher = stronger signal-on switching upon ATP binding; sequences stand for … in TCGTCGGCAGCGTCAGATGTGTATAAGAGACAGTTTTTTTTTTTTTTTTTTTTTTTTT…TC. Conditions: aptamer strand: ATP DNA aptamer (quencher-CACCTGGGGGAGTATTGCGGAGGAAGG + anchor), 100 nM annealed; ATP concentration: 500 uM; one replicate. Put shortly:
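Imaging in selection buffer was followed by imaging after 15 min with 500 uM ATP at 22 °C, for Cy3-labelled switching-strand clusters annealed to 100 nM quencher-labelled ATP aptamer on a modified Illumina MiSeq flow-cell. Five of these buffer/ATP cycles ran, separated by NaOH stripping and re-annealing. The fluorescence ratio per cluster is summed target-cycle over summed buffer-cycle Cy3 intensity, averaged per switch-domain sequence; clusters outside 100-1000 RFU were removed.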

Results on 120 sequences are retold here after the supplement of paper PMC10126150.

Values marked as one replicate rest on one cluster of the flow cell; about a third of the high ones do not repeat.
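Note: ATP exposure 15 min at 22 °C before imaging.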

ATTTAGAGAT: the switch fluorescence ratio was 1.03. On to AAGCGAACTA, for which the switch fluorescence ratio turned out to be 1.03. In the case of GGCTATCCCG, the switch fluorescence ratio is 0.984.

Take AGAGGCCGCT: the switch fluorescence ratio stood at 1.11. The same measure for TCCCACGTGG: 0.984; for ACCCCCGCCA: 2.01; for GGGGCTAGGA: 0.966. The same measure for CGGATTACTG: 1.05; for CCGGTCTTGT: 1.02; for CGATATATCT: 0.992. As for GATTTATTGT, the figure is 0.997; as for GAAGCAGCCA, 1.1; as for CCAGAAGTCA, 1.01.

In the case of TAACTACTG, the switch fluorescence ratio worked out at 0.914. The same measure for TTTCGGTTTA: 1.01; for AGGACTTTGA: 1.02; for CGTAGTCTAA: 1.09. As to GGTCTTATTT, the switch fluorescence ratio came out at 0.983.

Take AGAGATGTAC: the switch fluorescence ratio worked out at 1.09. The same measure for CGCCAGACCT: 1.13. The same measure for GTCCTCTTAT: 0.983; for ATATGAGC: 1.04. The same measure for GAGAAGTAAC: 0.998; for TTCGGGCTTT: 0.982. For the sequence ATTGGAACCG, the switch fluorescence ratio is 1.03. For TTAGTGATCA, the switch fluorescence ratio was found to be 1.08. As for CCATAAGGCG, the figure is 1.02; as for GAGAAGTAGG, 1.01. The same measure for ACTAATGGCG: 1.07; for GTTCCAAGCT: 1.06. As for TCCGGAATT, the figure is 1.16. For the sequence TGCCATTTTT, the switch fluorescence ratio came out at 1.05. The same measure for TTATACCGTA: 1.1. Regarding GCCCGCCTGG, the switch fluorescence ratio was found to be 1.15.

TTGTGCACGT: the switch fluorescence ratio is 0.99. Turning to ATTCTCCTGC, the switch fluorescence ratio amounted to 1.07.

Take TAAAATGCAA: the switch fluorescence ratio was found to be 1.39. As for GCGTACAACA, the figure is 1.04; as for CTGGCGGCTG, 0.97.

For the sequence TGATGATGCT, the switch fluorescence ratio was determined as 0.951.

For the sequence AGATCAGGTA, the switch fluorescence ratio was found to be 1.01.

As for GGCTTGTACT, the switch fluorescence ratio came to 1.01. The same measure for AGCGACCGA: 1.05; for ACGGTCAATG: 1.04; for CGCCGTGTG: 0.966. The same measure for CAATACTACA: 1.49. The same measure for TTGCTTTGGC: 0.976. On to AATGTGGTGC, for which the switch fluorescence ratio was 0.99. The same measure for CTAGGTCACG: 1.03; for CATTCTATGT: 0.994; for TTGGTCTGTA: 0.983. TAGTATTATA: the switch fluorescence ratio turned out to be 1.03.

On to TTGAGAAACG, for which the switch fluorescence ratio came out at 1.02.

Take TTCACCGTGA: the switch fluorescence ratio stood at 1.35.

With GATCCCGA, the switch fluorescence ratio was found to be 0.964.

TGAGTGCGTG: the switch fluorescence ratio stood at 0.928. The same measure for TATCTCGAGC: 1.03; for GTACGACATA: 1.07; for CGGATCTGTT: 1.01. The same measure for ACGTAGACTT: 1.29; for TACTGCAGTG: 0.972; for ACACAGACAA: 1.15.

Take GTTCAAAACA: the switch fluorescence ratio was 0.985. The same measure for AAATCGGAAG: 0.935; for TAGGTCACGA: 1.02; for TCTTAGAGAA: 1.05.

As for TCCTGGGCCA, the switch fluorescence ratio came to 0.998. As for TTTAATAACT, the figure is 1.01; as for TAAATAGGTC, 1.02; as for AGTCTCTGCG, 1.13. The same measure for TCGGCTTCG: 1.12; for CGTGATCTAT: 0.986.

GAGAATTTGC: the switch fluorescence ratio was 1.04. As for AATGGAGTAT, the figure is 1.11; as for TTGCTCCTGC, 0.998; as for TGTTGCAT, 1.02. With TTACATGAT, the switch fluorescence ratio turned out to be 0.972. Turning to AACGGGGGT, the switch fluorescence ratio amounted to 1.02.

Consider GGGGCGACGG, for which the switch fluorescence ratio stood at 0.952. The same measure for CATATTGGT: 1.01. The same measure for GGCAGATACA: 1.04; for TACGGCGGCT: 0.874; for AGATTGACAC: 1.01. As for AGTTCCTCCT, the figure is 1.75. On to CAGAATTAGT, for which the switch fluorescence ratio came to 1.03. For GTTAAGGCTC, the switch fluorescence ratio was found to be 1. The same measure for AGTTTAATTG: 0.959; for TCAGGTGACA: 1.19. Regarding AGGATGAGTT, the switch fluorescence ratio came out at 0.928.

Turning to TCGTTCGTTT, the switch fluorescence ratio worked out at 0.98. As for CGATGGTCGG, the figure is 1.01.

Take CACATTCGAG: the switch fluorescence ratio turned out to be 0.981. As for TTCTTTCCTG, the figure is 0.985; as for TAATTTGGTC, 0.948; as for TGCAAGAGGA, 1.07. The same measure for CGGTGGCGGT: 1.16; for AATTCTTAGT: 0.986; for CAGGGGAGAA: 1.04. As for CCATGGAAA, the figure is 0.972; as for GGCTCCAGAA, 0.995; as for TTAGGGTATC, 0.978. As to GGGATGTATA, the switch fluorescence ratio is 0.95. Take TTACATTCGC: the switch fluorescence ratio was 1.02.

On to GCTGATTTAA, for which the switch fluorescence ratio was determined as 0.977. As for GGTGGCTAAA, the figure is 0.967; as for CCAACGACAT, 2.09. As for ACGCAAGTAT, the figure is 1.13; as for TAGTGGCCGC, 1.04.

On to GTATGCAGTT, for which the switch fluorescence ratio worked out at 0.981. For the sequence CCCAACTTGG, the switch fluorescence ratio was 0.991. The same measure for TGGGCCTGCG: 1.06. The same measure for CTTCGGGAAC: 1.49. The same measure for GTCCGAACGA: 1.26. As for AAAAAACCCG, the switch fluorescence ratio was 1.07.

Consider GCTTGGCGGC, for which the switch fluorescence ratio is 0.998. Turning to GTGACAGGGC, the switch fluorescence ratio is 1.06. As for TAATATGGAC, the figure is 1.02; as for ATAAATTAGA, 0.955; as for ATGGTGGAG, 0.979. As for CAGAATGGGT, the figure is 0.919.
